# Laboratory results taken from PubChem BioAssay AID1159580 (chemical genetic matrix, 2015).
# Among all 5,500 compounds or so, about 2,000 (36%) were called active. The shares of active, inactive and inconclusive entries below differ from those in the screen. Rule as the data show it: active = normalized growth mostly below about 0.91 (no sharp cut-off); inconclusive = no clear call, values can overlap the other calls; inactive = mostly above about 0.92. A structure can be active in one record and inactive in another.
# Assay: chemical genetic growth profiling, strain panel (AID 1159580);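 also: tested at 20 µM; growth read once vehicle control cultures reached saturation at 30 °C; 1 = growth at the plate median or of vehicle wells; lower values mean less growth of the strain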
# Settings: S. cerevisiae deletion strains, growth OD
# [1] = locus YPL256C, strain CLN2, stronger effect = lower value
# [2] = locus YNL175C, strain NOP13, stronger effect = lower value
# [3] = locus YPL204W, strain HRR25, stronger effect = lower value
# [4] = locus YDL132W, strain cdc53, stronger effect = lower value
# [5] = locus YDR054C, strain cdc34, stronger effect = lower value
# [6] = locus YFR028C, strain CDC14, stronger effect = lower value
# [7] = locus YKL009W, strain mrt4, stronger effect = lower value
# [8] = locus YJL128C, strain PBS2, stronger effect = lower value
# [9] = locus YNL307C, strain MCK1 (second series), stronger effect = lower value
compound,measurement,setting,value
N#C/C(=C\c1cccc(O)c1)C(=O)O,normalized growth,"locus YCL011C, strain gbp2, stronger effect = lower value",inconclusive: 0.902 [sensitive]
O=C(Nc1ccc(Cl)cc1)OCCSc1nc2ccccc2s1,normalized growth,[1],inconclusive: 0.863 [sensitive]
CC1=C[C@@H]2c3cccc4[nH]cc(c34)C[C@H]2N(C)C1,normalized growth,"locus YAL040C, strain CLN3, stronger effect = lower value",inactive: 0.988
same,normalized growth,"locus YER002W, strain NOP16, stronger effect = lower value",inactive: 0.993
same,normalized growth,"locus YJR075W, strain HOC1, stronger effect = lower value",inactive: 1
same,normalized growth,"locus YMR263W, strain SAP30, stronger effect = lower value",inactive: 0.996
same,normalized growth,"locus YMR307W, strain GAS1, stronger effect = lower value",inactive: 1.01
same,normalized growth,[2],inactive: 1
same,normalized growth,"locus YNL197C, strain WHI3, stronger effect = lower value",inactive: 1.01
same,normalized growth,"locus YNL224C, strain SQS1, stronger effect = lower value",inactive: 0.987
same,normalized growth,"locus YOR083W, strain WHI5 (second series), stronger effect = lower value",inactive: 1
O=C(c1ccccc1)c1cc(Cl)ccc1NC(=S)Nc1ccc(F)cc1,normalized growth,[3],inconclusive: 1.2 [resistant]
N[C@@H](Cc1cc(I)c(Oc2ccc(O)c(I)c2)c(I)c1)C(=O)O,normalized growth,"locus YNL183C, strain NPR1, stronger effect = lower value",inconclusive: 0.781 [sensitive]
CC(C)c1ccc2c(c1)CCC1[C@](C)(CN)CCC[C@]21C (some centres not stated),normalized growth,"locus YER155C, strain BEM2, stronger effect = lower value",inconclusive: 0.899 [sensitive]
COC(=O)c1cc(OC)c(=O)c2c(OC)c(OC)ccc2c1,normalized growth,"locus YGR252W, strain gcn5, stronger effect = lower value",inconclusive: 1.3 [resistant]
C[C@]12CCC3C(CC[C@]4(O)C[C@@H](O)CC[C@]34C=O)[C@@]1(O)CCC2C1=CC(=O)OC1 (some centres not stated),normalized growth,"locus YMR223W, strain ubp8, stronger effect = lower value",inconclusive: 0.897 [sensitive]
N#CSCC(=O)c1ccccc1,normalized growth,[4],inconclusive: 0.537 [sensitive]
same,normalized growth,[5],inconclusive: 0.528 [sensitive]
same,normalized growth,"locus YDR226W, strain ADK1, stronger effect = lower value",inconclusive: 0.54 [sensitive]
same,normalized growth,[6],inconclusive: 0.544 [sensitive]
O=C(O)c1ccccc1-c1c2cc(Br)c(=O)cc-2oc2[c]([Hg])c(O)c(Br)cc12,normalized growth,"locus YCL069W, strain vba3, stronger effect = lower value",inconclusive: 0.809 [sensitive]
OCc1c[nH]c2ccccc12,normalized growth,"locus YLR027C, strain aat2, stronger effect = lower value",inconclusive: 0.915 [sensitive]
COc1cccc2c1C(=O)c1c(O)c3c(c(O)c1C2=O)C[C@@](O)(C(C)=O)C[C@@H]3O[C@H]1C[C@H](N)[C@H](O)[C@H](C)O1,normalized growth,"locus YBR171W, strain sec66, stronger effect = lower value",inconclusive: 0.883 [sensitive]
CC(C1OC(C)(C)C(O)C1O)[C@@H]1CC[C@]2(C)C3=CCC4C(C)(C)C(=O)CC[C@]4(C)C3CC[C@@]12C (some centres not stated),normalized growth,"locus YDL185W, strain tfp1, stronger effect = lower value",inconclusive: 1.14 [resistant]
same,normalized growth,[7],inconclusive: 1.29 [resistant]
CSc1ccc(/C=C(\C)[N+](=O)[O-])cc1,normalized growth,[4],inconclusive: 0.534 [sensitive]
same,normalized growth,[8],inconclusive: 0.52 [sensitive]
S=C(S)N1CCCC1,normalized growth,"locus YCL061C, strain MRC1 (second series), stronger effect = lower value",inconclusive: 0.606 [sensitive]
c1ccc(-c2nnc(-c3ccccn3)nc2-c2ccccc2)cc1,normalized growth,"locus YAR019C, strain CDC15, stronger effect = lower value",active: 0.857
same,normalized growth,[4],active: 0.856
same,normalized growth,"locus YDR052C, strain DBF4, stronger effect = lower value",active: 0.908
same,normalized growth,[5],active: 0.845
same,normalized growth,"locus YFL009W, strain cdc4, stronger effect = lower value",active: 0.812
same,normalized growth,"locus YFL029C, strain CAK1, stronger effect = lower value",active: 0.806
same,normalized growth,[6],active: 0.871
same,normalized growth,"locus YGR092W, strain DBF2, stronger effect = lower value",active: 0.473
same,normalized growth,"locus YHR030C, strain SLT2, stronger effect = lower value",active: 0.531
same,normalized growth,"locus YHR079C, strain IRE1, stronger effect = lower value",active: 0.487
same,normalized growth,"locus YJL095W, strain BCK1, stronger effect = lower value",active: 0.47
same,normalized growth,"locus YJR016C, strain ILV3, stronger effect = lower value",active: 0.83
same,normalized growth,"locus YKL048C, strain ELM1, stronger effect = lower value",active: 0.683
same,normalized growth,"locus YKL101W, strain HSL1, stronger effect = lower value",active: 0.716
same,normalized growth,"locus YKL193C, strain SDS22, stronger effect = lower value",active: 0.867
same,normalized growth,"locus YKL203C, strain TOR2, stronger effect = lower value",active: 0.652
same,normalized growth,"locus YLR113W, strain HOG1, stronger effect = lower value",active: 0.581
same,normalized growth,"locus YLR133W, strain CKI1, stronger effect = lower value",active: 0.676
same,normalized growth,"locus YLR403W, strain SFP1, stronger effect = lower value",active: 0.631
same,normalized growth,"locus YMR205C, strain PFK2 (second series), stronger effect = lower value",active: 0.734
same,normalized growth,"locus YMR277W, strain FCP1, stronger effect = lower value",active: 0.871
same,normalized growth,"locus YNL207W, strain RIO2, stronger effect = lower value",active: 0.813
same,normalized growth,[9],active: 0.623
same,normalized growth,"locus YOL078W, strain AVO1, stronger effect = lower value",active: 0.859
same,normalized growth,"locus YOR061W, strain CKA2, stronger effect = lower value",active: 0.662
same,normalized growth,"locus YOR119C, strain RIO1, stronger effect = lower value",active: 0.57
same,normalized growth,[3],active: 0.661
same,normalized growth,[1],active: 0.545
same,normalized growth,"strain NNK1, stronger effect = lower value",active: 0.814
same,normalized growth,"strain TSCII, stronger effect = lower value",active: 0.842
COc1ccc(-c2coc3cc(OC(C)=O)cc(OC(C)=O)c3c2=O)cc1,normalized growth,"locus YOR290C, strain snf2, stronger effect = lower value",inconclusive: 0.864 [sensitive]
CC1(C)OC(=O)C=CC2(C)C1CC(O)C1(C)C2CCC2(C)C(c3ccoc3)OC(=O)C3OC321 (configuration not stated),normalized growth,"locus YPR163C, strain tif3, stronger effect = lower value",inconclusive: 1.28 [resistant]
CCC(C)C(=O)c1c(O)c(C)c2oc3c(C)c(O)c(C(=O)C(C)CC)c(O)c3c2c1O (configuration not stated),normalized growth,[7],inconclusive: 1.23 [resistant]
COc1cccc(C2SCc3cc(C)c(C)cc3CS2)c1O,normalized growth,"locus YAL013W, strain DEP1, stronger effect = lower value",inconclusive: 0.909 [sensitive]
COC(=O)c1c(C)cc(OC(=O)c2c(C)cc(O)c(C=O)c2O)c(C)c1O,normalized growth,[7],inconclusive: 1.18 [resistant]
O=C1C=CC(=O)c2c(O)cccc21,normalized growth,"locus YLR371W, strain rom2, stronger effect = lower value",inconclusive: 0.834 [sensitive]
NC1CONC1=O (configuration not stated),normalized growth,[2],inconclusive: 0.756 [sensitive]
O=c1c(-c2ccccc2)coc2cc(O)cc(O)c12,normalized growth,"locus YEL061C, strain CIN8, stronger effect = lower value",inconclusive: 0.922 [sensitive]
Cc1cc2nc3c(Cl)c(O)c4ccccc4c3nc2cc1C,normalized growth,[9],inconclusive: 0.578 [sensitive]
CC(=O)c1ccc(Cl)c(N=Cc2cc(Cl)cc(Cl)c2O)c1,normalized growth,[5],inconclusive: 0.87 [sensitive]
C1CCc2nnnn2CC1,normalized growth,"locus YGL167C, strain pmr1, stronger effect = lower value",inconclusive: 0.745 [sensitive]
C=C1c2cccc(O)c2C(O)=C2C(=O)[C@]3(O)C(O)=C(C(N)=O)C(=O)[C@@H](N(C)C)[C@@H]3[C@@H](O)[C@H]12,normalized growth,"locus YKR091W, strain srl3, stronger effect = lower value",inconclusive: 0.9 [sensitive]
O=c1cc(-c2ccc(O)c(O)c2)oc2ccccc12,normalized growth,"locus YMR058W, strain fet3, stronger effect = lower value",inconclusive: 0.846 [sensitive]
COc1cc2ncnc(Nc3cccc(Cl)c3)c2cc1OC,normalized growth,"locus YJR043C, strain POL32, stronger effect = lower value",inconclusive: 0.91 [sensitive]
O=C(O)c1ccccc1O,normalized growth,"locus YKR026C, strain gcn3, stronger effect = lower value",inconclusive: 1.23 [resistant]
C=CC1=C(C(=O)O)N2C(=O)[C@@H](NC(=O)/C(=N/O)c3csc(N)n3)[C@H]2SC1,normalized growth,"locus YOL147C, strain pex11, stronger effect = lower value",inconclusive: 0.928 [sensitive]
same,normalized growth,"locus YPR119W, strain clb2, stronger effect = lower value",inconclusive: 0.923 [sensitive]
Cc1ccc(NS(=O)(=O)c2ccc(Cl)cc2)c(N=Cc2cc(Cl)cc(Cl)c2O)c1,normalized growth,[8],inconclusive: 0.834 [sensitive]
COc1cccc2c1C(=O)c1c(O)c3c(c(O)c1C2=O)C[C@@](O)(C(=O)CO)C[C@@H]3OC1C[C@H](N)[C@H](O)[C@H](C)O1 (some centres not stated),normalized growth,"locus YMR125W, strain sto1, stronger effect = lower value",inconclusive: 0.881 [sensitive]
